The campaign covered roughly 52,000 compounds. About 4,300 (8.3%) were called active. No stated cut-off is given here; in the data, active means survival mostly below about 52% (no sharp cut-off); inactive means mostly above about 56%. This is one part of the list.
These molecules were tested on DeltatarO mutant (assay: S. aureus survival, RN4220 and DeltatarO strains – OD600, teichoic acid synthesis inhibitors, primary screen (AID 463173)). Details: S. aureus RN4220 wild type/DeltatarO growth, OD600, 18 h, active compounds read low, screened at 18.75 µg/mL (by protocol).
For `Cc1cccc(-c2nc3nc(C)cc(NC(C)c4ccccc4)n3n2)c1` (centres undefined), the survival was inactive: 86%. In the case of `COc1cc(NS(=O)(=O)c2ccc(NC(=O)c3ccc(Cl)cc3Cl)cc2)nc(OC)n1`, the survival is reported as inactive: 98%. In the case of `COCCCNC(=O)c1cnc2sc(N3CCCCC3)nn2c1=O`, the survival is reported as inactive: 77%. For `CNC(=O)c1c(NC(=O)/C=C/c2ccccc2)sc2c1CCC2`, the survival was inactive: 87%. With `CCOCCCN=C1Sc2nc3cc4c(cc3cc2CN1CC1CCCO1)OCO4` (centres undefined) the survival was inactive: 103%. With `CSc1ccc(CCNC(=O)CCCn2c(=O)c3cccn3c3ccccc32)cc1` the survival was active: 42%. In the case of `CCOc1ccc(C(=O)Nc2cc3c(cc2N2CCCC2)n(C)c(=O)c(=O)n3C)cc1OCC`, the survival is reported as inactive: 100%. `CSc1ncc2c(n1)-c1ccccc1N(Cc1ccccc1)S2(=O)=O` was tested, and the survival was inactive: 88%. In the case of `O=C1c2[nH]nc(-c3ccc(F)cc3)c2C(c2ccccc2F)N1c1ccccc1` (centres undefined), the survival is reported as active: 10%. For `Cc1ccc2[nH]c3c(=O)n(CC(=O)Nc4ccc(Br)cc4C)ncc3c2c1`, the survival was inactive: 64%. `O=C(NCC1CCN(Cc2ccccc2F)CC1)Nc1ccc(F)c(Cl)c1` was tested, and the survival was inactive: 100%. With `Cc1ccnc(NC(=O)COc2ccc(Cl)cc2Cl)n1` the survival was inactive: 111%. With `COc1ccc(-c2nc3sc(CCNS(=O)(=O)c4ccccc4)c(C)n3n2)cc1` the survival was inactive: 64%. In the case of `CCCOc1ccc(C(=O)Nc2cc3c(cc2N2CCCCC2)n(C)c(=O)n3C)cc1`, the survival is reported as inactive: 67%. With `Cc1ccc2oc(C(=O)Nc3ccc(S(=O)(=O)Nc4nccc(C)n4)cc3)cc(=O)c2c1` the survival was inactive: 56%. `COc1ccc(Br)cc1CNC(=O)CN1C(=O)c2cccnc2Oc2ccc(C)cc21` was tested, and the survival was inactive: 85%. `CCN(CC)CCCNc1nc(C)nc2c1nnn2Cc1ccccc1` was tested, and the survival was inactive: 94%. `CC(C)c1ccc(N(CC(=O)O)S(=O)(=O)c2ccc3[nH]c(=O)c(=O)[nH]c3c2)cc1` was tested, and the survival was inactive: 144%. With `Cc1ccc(S(=O)(=O)Cc2nc(-c3ccc(C(=O)NCCCOC(C)C)cc3)oc2C)cc1` the survival was inactive: 72%. For `COc1ccc(Oc2nc3c(c(=O)n(Cc4ccc(Br)cc4)c(=O)n3C)n2C)cc1`, the survival was inactive: 89%. `COc1ccc(NC(=O)c2nc(-c3ccc(C)cc3)n3c2CCCCC3)cc1` was tested, and the survival was inactive: 55%. `CCSc1nc2ccccc2c(OCc2ccccc2Cl)c1C(=O)OC` was tested, and the survival was inactive: 64%. With `O=C(c1ccc(F)cc1)n1nc(-c2cccnc2)nc1NCc1ccccc1` the survival was inactive: 71%. `COc1ccc(-n2ccnc(NCCc3ccccc3)c2=O)cc1OC` was tested, and the survival was inactive: 102%. For `CC(C)(C)c1ccc(C(=O)Nc2c(C(=O)c3ccc(F)cc3)oc3ccccc23)cc1`, the survival was inactive: 95%. In the case of `Cc1nn(C(C)C(=O)Nc2ccccc2C(F)(F)F)c(=O)c2c1sc1ccccc12` (centres undefined), the survival is reported as inactive: 107%. For `Cc1nc2nc(CNC(=O)c3cccc(F)c3)nn2c(C)c1CCC(=O)Nc1cccc(Cl)c1`, the survival was inactive: 110%. `Cc1ccc(N(CC(C)C)S(=O)(=O)c2nnc(NC(=O)C(C)C)s2)cc1` was tested, and the survival was inactive: 72%. `COc1ccccc1CNC(=O)COCc1cc(-c2cccs2)on1` was tested, and the survival was inactive: 69%. For `CCOC(=O)C1=NN(c2ccccc2)C(=O)C1`, the survival was inactive: 65%. `Cn1c(-c2ccccc2)nc2cc(N)ccc21` was tested, and the survival was inactive: 97%. In the case of `COC(=O)CCC/C=C1/SCC(NC(=O)c2ccccc2)/C1=N/O` (centres undefined), the survival is reported as inactive: 96%. `Fc1ccc(Nc2nc3ccccc3n3cnnc23)c(F)c1` was tested, and the survival was inactive: 56%. For `CCC(=O)N1CCc2cc(S(=O)(=O)NC(Cc3ccccc3)C(=O)O)ccc21` (centres undefined), the survival was active: 25%. For `COc1ccc(NC(=O)CSc2nc3ccccc3c(=O)n2CCC(=O)NC2CCCCC2)c(OC)c1`, the survival was inactive: 75%. With `O=C(CCCCCn1c(=O)c2sccc2n(Cc2ccccc2Cl)c1=O)NCc1ccc2c(c1)OCO2` the survival was inactive: 84%. `Cc1ccc(S(=O)(=O)Nc2ccc3nc(-c4cccc(Cl)c4)oc3c2)cc1` was tested, and the survival was active: 28%. With `COc1ccc(CCNC(=O)C(C)n2nc(C)c3sc4ccccc4c3c2=O)c(OC)c1` (centres undefined) the survival was inactive: 58%. For `Cc1ccc2oc(-c3ccc(Cl)c(NC(=O)c4cc5ccccc5o4)c3)nc2c1`, the survival was active: 39%. In the case of `Cc1ccc(CNC(=O)c2cnc3c(-c4ccc(F)cc4)c(C)nn3c2C)o1`, the survival is reported as inactive: 94%. `COc1ccc(Cl)cc1NC(=O)c1cnc2sc(N3CCOCC3)nn2c1=O` was tested, and the survival was inactive: 80%. With `CN1CCN(CCNC(=O)c2cnn(-c3ccc(Cl)cc3)c2C2CCN(C(=O)OC(C)(C)C)CC2)CC1` the survival was inactive: 69%. In the case of `CCOC(=O)c1c(NC(=O)c2nc3n(n2)C(C(F)F)CC(C)N3)sc2c1CCCC2` (centres undefined), the survival is reported as inactive: 100%. For `CCOc1ccc(-c2nonc2NC(=O)c2oc3ccc(CC)cc3c2C)cc1`, the survival was inactive: 108%. In the case of `CCN(C(=O)C1CCN(S(=O)(=O)c2c(C)noc2/C=C/c2ccc(C)cc2)CC1)c1cccc(C)c1`, the survival is reported as inactive: 84%. `C/C(=N\NC(=O)c1ccc(N2CCCC2=O)cc1)c1ccccc1` was tested, and the survival was inactive: 87%. For `COc1ccc2c(C)c(CC(=O)NCc3ccccc3Cl)c(=O)oc2c1OC`, the survival was inactive: 55%. For `CC(C)CN(CCNC(=O)CCN1N=C(c2ccccc2)CCC1=O)CC(C)C`, the survival was inactive: 84%. For `Cc1ccc(-c2onc(C)c2C)cc1S(=O)(=O)Nc1ccccn1`, the survival was inactive: 84%. In the case of `CCc1ccccc1NC(=O)c1ccc2c(c1)CCCN2S(C)(=O)=O`, the survival is reported as inactive: 105%. For `COc1ccc2c(c1)c1c(c(=O)n(CCc3ccccc3)c(=O)n1Cc1cccc(F)c1)n2C`, the survival was inactive: 67%. For `CCSc1nc2ccccc2c(OCc2ccc(Cl)cc2)c1C(=O)OC`, the survival was inactive: 98%. With `CC(C)(C)OC(=O)N1CCC(c2c(C(=O)N3CCN(Cc4ccccc4)CC3)cnn2-c2cccc(Cl)c2)CC1` the survival was inactive: 78%. `COc1ccc(Cn2c(CO)cnc2SCc2ccc(C)cc2)cc1` was tested, and the survival was inactive: 128%. With `COc1cc(OC)c(NC(=O)Cn2ncn3c(cc4cc(C)ccc43)c2=O)cc1Cl` the survival was inactive: 99%. In the case of `Cc1cccc(NC(=O)CSC2=Nc3ccccc3C3=NC(CCC(=O)NCc4ccco4)C(=O)N23)c1` (centres undefined), the survival is reported as inactive: 82%. For `COc1ccc(CC(CN)c2ccccc2)cc1` (centres undefined), the survival was inactive: 101%. With `COC(=O)c1sccc1S(=O)(=O)N(CC(=O)Nc1cccc(C)c1C)c1ccc(C)c(C)c1` the survival was inactive: 89%. In the case of `COc1ccccc1CNC(=O)Cn1cc2c(n1)-c1c(oc(C(=O)N3CCOCC3)c1C)CC2`, the survival is reported as inactive: 79%. For `CCc1ccc(-c2cn3nc(CC)sc3n2)cc1`, the survival was inactive: 66%. In the case of `CN(C)c1ccc(-c2nnc(SCC3CCCO3)n2C)cc1` (centres undefined), the survival is reported as inactive: 82%. With `CCOC(=O)c1c(NC(=O)c2cc(-c3ccc(OC)c(OC)c3)on2)sc2c1CCCC2` the survival was inactive: 52%. `CCc1c(C)sc2c1CCN(Cc1ccc(C#N)cc1)C2c1ccccc1` (centres undefined) was tested, and the survival was inactive: 94%. With `O=C(CN1C(=O)CCSc2ccc(S(=O)(=O)N3CCCC3)cc21)Nc1cccc(F)c1` the survival was inactive: 72%. In the case of `COC(=O)CC1Oc2ccccc2-n2cc(-c3ccc(F)cc3)nc21` (centres undefined), the survival is reported as inactive: 65%. In the case of `COc1cc(C(c2c(C)[nH][nH]c2=O)c2c(C)[nH][nH]c2=O)ccc1OC(=O)c1ccccc1OC`, the survival is reported as inactive: 143%. For `CCOC(=O)C(C)NC(=O)c1c2c(nc3ccccc13)C(=O)N(C1CCCCC1)C2` (centres undefined), the survival was inactive: 107%. `COc1ccc(CCNC(=O)CN(c2ccccc2)S(=O)(=O)N(C)C)cc1OC` was tested, and the survival was inactive: 62%. For `CCc1cccc(C)c1NC(=O)CSc1nc2ccccc2nc1Cc1ccccc1`, the survival was inactive: 69%. For `Cc1ccc(NC(=O)c2oc3ccc(S(=O)(=O)N4CCC5(CC4)OCCO5)cc3c2C)cc1Cl`, the survival was inactive: 98%. For `CC(=O)N1CCC(N(CCCOC(C)C)C(=O)Nc2ccc(C)c(C)c2)CC1`, the survival was inactive: 84%. With `COc1ccc(-c2nc3cc(NC(=O)COc4ccccc4C)ccc3o2)cc1` the survival was inactive: 60%. For `CC1CCN(CC(=O)Nc2ccc(F)cc2)CC1`, the survival was inactive: 105%. With `O=C(CCNS(=O)(=O)c1ccc2c(c1)CCN2C(=O)C1CC1)N1CCN(c2cccc(Cl)c2)CC1` the survival was inactive: 122%. `CCOc1ccc(/C=C/C(=O)Nc2ccc3nc(N(CC)CC)cc(C)c3c2)cc1OC` was tested, and the survival was inactive: 52%. With `Cc1ccc(C)c(NC(=S)NC2CC3CCC(C2)N3Cc2ccco2)c1` (centres undefined) the survival was inactive: 76%. For `C=CC[N+]1(CC=C)CCOCC1`, the survival was inactive: 84%. `CCC(=O)N1c2ccc(S(=O)(=O)CCC(=O)Nc3ccc(OC)cc3OC)cc2CC1C` (centres undefined) was tested, and the survival was inactive: 83%. For `CCc1ccc(C2c3c(-c4ccccc4O)n[nH]c3C(=O)N2Cc2cccnc2)cc1` (centres undefined), the survival was active: 34%. For `COc1ccc(Nc2nn3c(=O)c4cc5c(cc4nc3s2)OCO5)c(OC)c1`, the survival was inactive: 146%. `CC(=O)OC1CC(C)N(C(=O)c2ccccc2)c2ccc(C)cc21` (centres undefined) was tested, and the survival was inactive: 67%. `Cc1ccc2c(CC(=O)Nc3ccc(S(=O)(=O)N4CCCCC4)cc3)coc2c1C` was tested, and the survival was inactive: 67%. With `COc1cc(CN(C(=O)c2ccccc2F)C2CCS(=O)(=O)C2)cc(OC)c1OC` (centres undefined) the survival was inactive: 46%. In the case of `CCCS(=O)(=O)N1CC(=O)N(c2ccc(C)c(Cl)c2)C(C)(C(=O)NC2CCCCCC2)C1` (centres undefined), the survival is reported as inactive: 82%. In the case of `CCCCNC(=O)CCCN1C(=O)c2ccccc2Sc2ncccc21`, the survival is reported as inactive: 68%. For `Oc1c(C(c2ccc(F)cc2)N2CCN(Cc3ccccc3)CC2)sc2nc(-c3ccco3)nn12` (centres undefined), the survival was inactive: 73%. With `CN1C(=O)C2(c3ccccc31)N(c1cccc(C(F)(F)F)c1)C(=O)CS2(=O)=O` (centres undefined) the survival was inactive: 68%. With `CCC(=O)N1CCc2cc(CNS(=O)(=O)c3ccc(CC(C)C)cc3)ccc21` the survival was inactive: 79%. For `CCN1CCN(c2ncc3c(n2)CCN(Cc2ccccc2C)C3)CC1`, the survival was active: -1%.

From PubChem BioAssay AID463173 (ICCB-Longwood Screening Facility, Harvard Medical School, 2010)
